The results in this text go back to PMC4135351, “Quantitative analysis of mammalian GIRK2 channel regulation by G proteins, the signaling lipid PIP2 and Na^+ in a reconstituted system” (eLife, 2014).

The target in the experiment is T1, Human G protein subunit β1 (human, UniProt P62873).
T1 construct: G protein subunit β1 (Gβ1), human; The chain of m2, written alone for the row of the two chains with each other; also called Gβ1; Gβ; source: High Five insect cells, co-infection with Gγ2; purified together with Gγ2 (Talon resin, PreScission digestion, Superdex 200)
As to the kind of experiment: SEC; co-expressed and co-purified Gβ1 and Gγ2 on Superdex 200 10/300 in 20 mM HEPES pH 8.0, 150 mM KCl, 5 mM DTT, 1 mM EDTA, 0.2% DM. The settings on record: both partners purified.

T1 sequence (P62873 whole entry): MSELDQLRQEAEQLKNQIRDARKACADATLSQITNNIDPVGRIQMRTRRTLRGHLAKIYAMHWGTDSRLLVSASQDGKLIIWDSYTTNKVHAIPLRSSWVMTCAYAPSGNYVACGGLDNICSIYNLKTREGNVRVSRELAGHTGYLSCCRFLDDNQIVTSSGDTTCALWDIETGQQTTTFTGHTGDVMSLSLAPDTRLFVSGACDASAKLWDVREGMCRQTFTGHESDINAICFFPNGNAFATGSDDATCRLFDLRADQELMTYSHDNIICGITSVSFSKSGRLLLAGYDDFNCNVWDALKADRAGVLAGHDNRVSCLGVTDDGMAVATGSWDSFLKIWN

B1: Human G protein subunit γ2 (natural protein)
chain: not shown
modifications: Gγ-linked geranylgeranyl lipid moiety (absent in the C68S mutant)
notes: G protein subunit γ2 (Gγ2), human; The chain of m2, written alone for the row of the two chains with each other; also called Gγ2; Gγ; source: High Five insect cells, co-infection with Gβ1; purified together with Gβ1 (Talon resin, PreScission digestion, Superdex 200)
As for B1, the binding result was “binds”.
